Laboratory results published in ChEMBL document CHEMBL4888484, “Replenishing the malaria drug discovery pipeline: Screening and hit evaluation of the MMV Hit Generation Library 1 (HGL1) against asexual blood stage Plasmodium falciparum ,using a nano luciferase reporter read-out” (2022).
Out of some 150,000 compounds screened, about 540 (0.36%) showed an effect of 50% or more. Some of the results follow.

System: Plasmodium falciparum
Assay: Primary screen in NF54 nanoGlo assay, in single point, at 2uM, 72h; a lower Z score goes with more inhibition
Assay type: functional, Erythrocyte
Settings: timepoint 72 hour

| SMILES | % Inhibition [%] | Z score |
| --- | --- | --- |
| O=c1ccn(CCOc2cc(Cl)cc(Cl)c2)c(Cl)c1 | -9 | 1.88 |
| Cc1csc(NC(=O)c2ccc(OC[C@H]3CCCO3)nc2)n1 | -20 | 3.84 |
| Cc1cc(C)nc(NCCC(=O)Nc2nccs2)n1 | 4 | -0.65 |
| C[C@H](NC(=O)C1CCCC1)C(=O)N(C)Cc1ccsc1 | -11 | 1.12 |
| O=c1c2ccccc2c(-c2nc(-c3ccc(F)cc3)no2)nn1-c1ccccc1 | 27 | -3.12 |
| CC(C)c1n[nH]c([C@@H]2CN(Cc3nc4ccccc4n3C)CCO2)n1 | -13 | 1.98 |
| COC1(OC)CCOC[C@@H]1CCNCc1c(F)cccc1F | -9 | 1.78 |
| CC1CCNC(C)C1NC(=O)Cc1ccc(O)cc1 (stereo not drawn) | -9 | 1.33 |
| CC1(C)Cc2nc(N3CCOCC3)ncc2[C@@H](N)C1 | 2 | -0.29 |
| N#Cc1cnc(N[C@H]2C[C@@H](O)C2)c(Cl)c1 | 2 | -0.3 |
| Cc1nc(N)nc(C)c1CC(=O)N1CCC[C@H]1c1nc(-c2ccccn2)no1 | -16 | 2.34 |
| CN(Cc1n[nH]c2c1CCCCC2)C(=O)c1nc(N)n[nH]1 | 13 | -2.17 |
| CCC1CC1NC(=O)NCC(C)(O)c1cnn(C)c1 (stereo not drawn) | -4 | 0.36 |
| Cc1cc(N2CCN(c3ccccn3)CC2)n2cc(-c3ccccc3)nc2n1 | 42 | -5.35 |
| Cc1ncn(Cc2ncc(-c3cccs3)o2)c1C | -11 | 2.05 |
| C(=C\c1cccc(-n2cnnc2)c1)/c1ccccc1 | -14 | 1.74 |
| CC(=O)N1CCN(C(=O)Nc2ccccc2)C[C@H]1C(=O)N[C@@H](CC1CCCCC1)C(N)=O | 0 | -0.07 |
| CCn1nc(C)c(CN[C@@H](C)c2cccc(-n3cccn3)c2)n1 | 4 | -0.7 |
| c1ccc2cc(CN3CC[C@@]4(CCCNC4)C3)ccc2c1 | -6 | 0.78 |
| COc1cc(OC)cc(-c2nc(-c3nnn(-c4ccc(F)cc4)c3C)no2)c1 | -15 | 2.47 |
| Cc1csc(S(=O)(=O)N2C[C@@H]3CC[C@H]2CN(Cc2ccccc2)C3)c1 | -1 | 0.14 |
| Cc1nc(-c2cccc(NC(=O)c3ccc(N4CCOCC4)nn3)c2)cs1 | -13 | 1.77 |
| Cc1ccc(F)c(NC(=O)[C@H]2CN(S(=O)(=O)C3CC3)CC23CCCCC3)c1 | -8 | 1.19 |
| CCN1C(=O)c2cc(C(=O)N3CCN(C)CC3)nn2C[C@@]1(C)C(=O)NC1CCCC1 | -13 | 2.03 |
| Cc1nccn1CCNC(=O)[C@]1(C)COCc2nnc(C3CCCC3)n21 | -5 | 0.55 |
| CC1CCN(S(=O)(=O)c2ccc(CNC(=O)CCC3CCCC3)s2)CC1 | -19 | 2.98 |
| CC1CN(C(=O)NCc2cc(Cl)sc2Cl)CC1(C)CO (stereo not drawn) | -16 | 2.07 |

| SMILES | % Inhibition [%] | Z score |
| --- | --- | --- |
| Cc1cc(OC2CCN(C(=O)Cc3cccs3)CC2)nc(C)n1 | -9 | 1.62 |
| O=C(c1ccc(=O)[nH]n1)N1CCC[C@H](Oc2ncc(Cl)cn2)C1 | 8 | -1.06 |
| c1cnn(Cc2noc3c2CCCC3)c1 | -3 | 0.34 |
| CC1=CN(c2ccc(Br)cc2)C(=O)N(c2ccccc2)N=C1C | -45 | 5.24 |
| O=C(c1cnn(-c2ccccc2)n1)N1CC(Nc2cccnn2)C1 | -8 | 0.9 |
| C[C@@H]1[C@H](C(=O)Nc2cccc(NC(N)=O)c2)CCCN1C(=O)OC(C)(C)C | -6 | 0.92 |
| CCOCC(=O)NCCn1ccc(-c2cnccn2)n1 | -12 | 1.98 |
| Cc1nnc([C@H]2CCN(Cc3cccc(C#N)c3)C2)o1 | -6 | 0.92 |
| Cc1cccc(C)c1NC(=O)CN(CC(=O)Nc1c(C)cccc1C)Cc1nc(-c2cccnc2)no1 | -9 | 1.03 |
| C#CCN1CCC(C(=O)N(CCC#N)CCC(C)C)CC1 | -10 | 0.97 |
| COCc1cccc(CN(CCO)C2CCC(C)C2)c1 (stereo not drawn) | -3 | 0.51 |
| Nc1ncnc(NC2CCCC(O)C2)c1Cl (stereo not drawn) | -3 | 0.61 |
| O=C(Nc1ccccc1-c1ccco1)N1CCN[C@@H]2CS(=O)(=O)C[C@@H]21 | -8 | 1.22 |
| CNc1snc(C)c1C(=O)N[C@H]1CCc2ccccc21 | 19 | -3.67 |
| Cc1ccnc(Oc2ccc(NC(=O)c3cccc4cc[nH]c34)cc2)n1 | -10 | 1.56 |
| O=C(C1CCCC1)N1C[C@H](O)[C@@H](N2CCOCC2)C1 | -1 | 0.09 |
| COC(=O)c1ccc(CN2C(=O)CN(C3CCCC3)C2=O)c(F)c1 | -10 | 1.37 |
| NC(=O)N1CCCN(c2nc(C3CC3)nc3scc(-c4ccccc4)c23)CC1 | 3 | -0.41 |
| CCn1c([C@H]2CCCNC2)nn(Cc2ccc(C(F)(F)F)nc2)c1=O | 4 | -0.65 |
| C[C@@H]1CCC2C(C)(C)[C@H](O)[C@H](O)C[C@]2(C)[C@@]12Cc1c(O)cc3c(c1O2)CN(CCCC(=O)O)C3=O (stereo partly drawn) | 29 | -3.25 |
| COCc1nc(CNc2cccc3c2CN([C@@H](C)C(C)C)C3)no1 | -7 | 1.27 |
| Cc1ccc(S(=O)(=O)N2COCC2(C)C)cc1 | -8 | 0.93 |
| COCCn1c(=O)c2cc(C(=O)Nc3ccccc3)nn2c2ccccc21 | -12 | 1.22 |
| O=C(Nc1ccc2c(c1)C(=O)NC2)c1ccc(O)nc1 | -7 | 0.69 |
| O=C(Cc1ccc(N(Cc2cccc(F)c2)C(=O)C2CCCC2)cc1)NCc1cccnc1 | 0 | -0.03 |
| CC(C)NC(=O)c1cncc(Br)c1 | 1 | -0.14 |
| Cc1nn(Cc2nnc(-c3ccc(C#N)cc3)o2)c(C)c1CCO | -5 | 0.65 |
